# Experimental data: PubChem BioAssay AID485344 (National Center for Advancing Translational Sciences (NCATS), 2010)
# About 6,900 (2%) of roughly 340,000 compounds were called active. No stated cut-off is given here; in the data, active means inhibition above about 30%; inactive means below that, where a call was filed. The entries are a selection whose mix differs from that of the whole data set. Where no call is shown, the source filed none.
# Target: D(2) dopamine receptor (Homo sapiens) (UniProt P14416)
# Sequence of UniProt P14416 (P14416 whole entry, looked up): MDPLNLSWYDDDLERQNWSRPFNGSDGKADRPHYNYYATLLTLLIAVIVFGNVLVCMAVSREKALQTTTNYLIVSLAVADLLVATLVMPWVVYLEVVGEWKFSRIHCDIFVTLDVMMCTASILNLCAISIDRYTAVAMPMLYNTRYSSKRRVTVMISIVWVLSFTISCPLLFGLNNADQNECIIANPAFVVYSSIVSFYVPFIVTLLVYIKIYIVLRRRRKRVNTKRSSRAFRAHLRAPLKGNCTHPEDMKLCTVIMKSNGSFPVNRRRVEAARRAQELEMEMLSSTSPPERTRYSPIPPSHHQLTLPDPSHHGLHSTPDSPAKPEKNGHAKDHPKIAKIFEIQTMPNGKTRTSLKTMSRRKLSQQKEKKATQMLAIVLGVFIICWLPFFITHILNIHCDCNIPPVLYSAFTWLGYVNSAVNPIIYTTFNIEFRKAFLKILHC
# Assay: HTS Assay for Allosteric Antagonists of the Human D2 Dopamine Receptor: Primary Screen for Antagonists; further: 0% is about no effect
# Conditions: HEK293 TREx D2 cells, calcium flux, dopamine EC80; at 10 µM; stronger effect = higher value
# In short: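 Tetracycline-induced HEK293 TREx cells expressing D2 receptor forced-coupled to calcium signalling, loaded with no-wash calcium dye. Compounds added and calcium flux read 180 s, then dopamine added at EC80 and read a further 180 s.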
row,SMILES,inhibition
1,CCCCC(=O)N1CCN(c2ccc(OC)cc2[N+](=O)[O-])CC1,active: 30%
2,CN1CCN(S(=O)(=O)c2cccc(C(=O)Oc3ccc(C(C)(C)C)cc3)c2)CC1,active: 34.3%
3,COC(=O)c1ccccc1NC(=O)c1cc(CN2CCCC2)on1,-0.116%
4,Cc1ccc2c(c1)-c1onc(C(=O)N3CCN(c4cc(Cl)ccc4C)CC3)c1CO2,-24%
5,CC1Cc2ccccc2N1S(=O)(=O)c1nnc(NC(=O)c2cccc(F)c2)s1 (stereo not drawn),-14.9%
6,CCC(=O)N1CCc2cc(CNC(=O)Cc3ccc(F)cc3)ccc21,-1.03%
7,CCn1nnc2cc(C(=O)Nc3ccc(C)c(Cl)c3)ccc21,-0.454%
8,CCn1nc(-c2ccccc2)c(-c2ccccc2)c(C(=O)Nc2nc(C)c(C(C)=O)s2)c1=O,-6.04%
9,CCC(=O)N1CCc2cc(CNC(=O)c3ccc(OC)cc3)ccc21,2.36%
10,CCCCn1cc(S(=O)(=O)c2ccc(C)c(C)c2)c(=O)c2cc(F)c(N(CC)CC)cc21,9.41%
11,CCOC(=O)CNc1ccc2c(c1)OCO2,active: 39.9%
12,COc1ccc(-c2nc(CN3CCC(C(=O)NCCc4ccccc4)CC3)c(C)o2)cc1OC,5.08%
13,Cc1ccc(NC(=O)CSc2nc(=O)n(Cc3ccco3)c3c2CCC3)cc1F,24.2%
14,Cn1c(-c2ccc(Br)cc2)cnc1NCc1cccnc1,active: 42.9%
15,CCn1c(=O)cc(SCC(=O)NCCCN2CCN(c3ccc(F)cc3)CC2)c2ccccc21,active: 65.8%
16,O=C(Nc1sc2c(c1C(=O)Nc1cccc(Cl)c1)CCCC2)c1cccs1,-12.5%
17,Cn1c(=O)c(=O)n(C)c2cc(N3CCCC3)c(NC(=O)c3ccccc3F)cc21,-13.7%
18,O=C1C2CCCN2C(=O)N1CCN1CCN(c2ccccc2)CC1 (stereo not drawn),active: 70.8%
19,CCOc1ccc(S(=O)(=O)N(CC(=O)NCCSc2ccc(C)cc2)c2ccccc2)cc1,4.67%
20,Cc1ccc(NC(=O)N2CCN(c3ccc(Cl)c(Cl)c3)CC2)cc1,4.68%
21,CCc1nnc(SCC(=O)Nc2cc(OC)ccc2OC)nc1CC,4%
22,CCN(Cc1ccccc1)C(=O)c1cc2c(=O)[nH]c3ccc(C)cc3c2s1,11.4%
23,Cc1cccc(Cn2c(COc3ccc(Cl)cc3)nc3ccccc32)c1,-2.41%
24,Cc1ccc(CCNC(=O)c2cc3n(n2)CCCN(Cc2ccc(C)cc2)C3=O)cc1,2.09%
25,Cc1nc2nc(NC(=O)CC(C)C)[nH]n2c(=O)c1Cc1ccccc1,-4.07%
26,CCc1ccccc1NC(=O)Cc1ccc(NC(=O)N2CCCCc3ccccc32)cc1,0.307%
27,c1ccc2c(c1)CCc1c-2nc2ccccc2c1N1CCOCC1,active: 36.6%
28,CCS(=O)(=O)c1ncc(Cl)c(C(=O)Nc2c(C(=O)Nc3cccc(C)c3)oc3ccccc23)n1,12.6%
